The results in this text go back to PubChem BioAssay AID485344 (National Center for Advancing Translational Sciences (NCATS), 2010).

As a reminder, the inhibition is the change of the read-out against control, counted positive when it falls.

About 6,900 (2%) of roughly 340,000 compounds were called active. Cut-off read from the data, not from the text of the source: active = inhibition above about 30%; inactive = below that, where a call was filed. This is a selection; strong and weak results do not stand in their true shares. Where no call is shown, the source filed none.

Sequence of UniProt P14416 (P14416 whole entry, looked up): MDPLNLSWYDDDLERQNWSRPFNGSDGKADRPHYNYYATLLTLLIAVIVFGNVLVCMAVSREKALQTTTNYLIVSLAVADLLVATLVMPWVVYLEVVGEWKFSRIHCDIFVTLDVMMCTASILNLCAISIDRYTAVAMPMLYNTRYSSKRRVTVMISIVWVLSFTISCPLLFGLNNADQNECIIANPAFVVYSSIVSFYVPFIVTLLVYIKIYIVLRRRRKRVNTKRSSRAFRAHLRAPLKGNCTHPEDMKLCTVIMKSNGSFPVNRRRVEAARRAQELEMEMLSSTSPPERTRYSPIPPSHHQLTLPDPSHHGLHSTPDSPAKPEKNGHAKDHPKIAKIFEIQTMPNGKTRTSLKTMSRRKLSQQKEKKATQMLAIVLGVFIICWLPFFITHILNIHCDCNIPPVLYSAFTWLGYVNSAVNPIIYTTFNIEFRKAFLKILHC

The experiment concerns the target D(2) dopamine receptor (Homo sapiens) (UniProt P14416). Briefly: HTS Assay for Allosteric Antagonists of the Human D2 Dopamine Receptor: Primary Screen for Antagonists. Note: 0% is about no effect. As to conditions: HEK293 TREx D2 cells, calcium flux, dopamine EC80; at 10 µM; stronger effect = higher value. In outline:
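Measurement of antagonist activity uses fluorescent calcium dye in inducible HEK293 T-REx D2 cells: 10 s baseline, compound addition with 180 s read, EC80 dopamine addition with a further 180 s read.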
A general note: Calcium assays in cells follow changes in intracellular calcium, usually with a dye or a luminescent sensor.
Take `COc1ccc(CNC(=O)Cc2ccc(NC(=O)N3CCSc4ncccc43)cc2)cc1OC`: the inhibition was determined as 2.75%.

Regarding `COc1ccc(-c2cc(C(=O)Nc3cccnc3)no2)cc1OC`, the inhibition is -8.63%.

`Cc1cccc(NC(=O)c2cn(-c3ccccc3)nc2-c2ccccc2)c1`: the inhibition was active: 40.3%.

As for `Cc1ccc(-n2ncc3c(NCCO)ncnc32)cc1Cl`, the inhibition came out at 7.11%.

For the compound `O=C(COC(=O)c1cc([N+](=O)[O-])ccc1N1CCOCC1)c1ccc(OC(F)F)cc1OC(F)F`, the inhibition is active: 44%.

For the compound `Cc1nc(N2CCCC2)c2c(C(=O)N3CCN(c4cc(Cl)ccc4C)CC3)c(C)oc2n1`, the inhibition was -13.2%.

In the case of `Cc1ccc(C(=O)c2cn(Cc3ccccc3)c3nc(C)ccc3c2=O)cc1`, the inhibition worked out at 5.78%.

With `CCn1c(=O)c(=O)n(CC)c2cc(S(=O)(=O)Nc3ccc(C)cc3)ccc21`, the inhibition is -2.78%.

Consider `COc1ccc(/C=N/NC(=O)C[n+]2ccccc2)c(OC)c1OC`, for which the inhibition is active: 35.1%.

As to `COC(=O)c1ccc(NC(=O)Cn2cnc3c2c(=O)n(C)c(=O)n3C)cc1`, the inhibition is -9.96%.

Turning to `O=C(Cn1c(=O)c2cccn2c2ccccc21)NCc1ccccc1F`, the inhibition turned out to be 4.39%.

`CN1CCC(NC(=O)c2cccc(Oc3ccccc3)c2)CC1`: the inhibition was active: 69.8%.

With `Cc1cccc(N(CC(=O)NCCSCc2ccccc2)S(=O)(=O)c2ccccc2)c1C`, the inhibition is -10.8%.

For `CCc1cccc(C)c1NC(=O)C1CCCN1S(=O)(=O)c1cccc2nsnc12` (stereo not given), the inhibition is -2.07%.

Take `CCCCN(C)C(=O)c1ccc2c(c1)N(Cc1cccc(F)c1)C(=O)c1ccccc1S2`: the inhibition is -2.53%.

Consider `CCOC(=O)c1scc(-c2ccc(C)cc2)c1S(=O)(=O)Nc1cc(OC)ccc1OC`, for which the inhibition turned out to be 7.81%.

For `O=C(CCCCCCN1C(=O)c2ccccc2C1=O)NC1CCCCC1`, the inhibition was active: 32.5%.

With `Cc1cc(C)c(/C=C/c2onc(C)c2S(=O)(=O)N2CCC(C(=O)NCCc3ccccc3)CC2)c(C)c1`, the inhibition amounted to 7.37%.

For the compound `Cc1ccc(OCCCn2c(-c3ccc(Cl)cc3)nc3ccccc3c2=O)c(C)c1`, the inhibition turned out to be 17.8%.

`O=C(NC(NC(=S)Nc1cccc(Cl)c1)C(Cl)(Cl)Cl)OCc1ccccc1` (stereo not given): the inhibition was active: 77.9%.

As for `Cc1ccc(NC(=O)C2CCCN(S(=O)(=O)c3c(C)noc3C)C2)cc1` (stereo not given), the inhibition was -13.7%.

As for `COc1ccc(NC(=O)c2oc3ccccc3c2NC(=O)C2CCCCC2)c(OC)c1`, the inhibition is 12.8%.

On to `Clc1ccc(-n2c(Cc3ccccc3)nnc2SCc2nc(-c3cccs3)no2)cc1`, for which the inhibition was -0.845%.

As for `Cc1ccc(S(=O)(=O)c2nc(-c3ccc(F)cc3)oc2N2CCN(c3ccccc3)CC2)cc1`, the inhibition stood at 2.38%.

As for `CCN(CC)c1ccc(C2Nc3ccccc3-c3cc(C)nn32)cc1` (stereo not given), the inhibition was 16.2%.

As to `CC(=O)C1=C(O)C(=O)N(c2ccc(Br)cn2)C1c1ccccc1[N+](=O)[O-]` (stereo not given), the inhibition was active: 31.2%.

Turning to `COc1ccc(CNC(=O)c2cccn2-c2nnc(N3CCCC3)s2)c(OC)c1`, the inhibition was 1.03%.

As for `COc1ccc(C2(CNC(=O)C(=O)Nc3ccccc3C)CCCC2)cc1OC`, the inhibition turned out to be 7.4%.

As to `CCOC(=O)c1ccc(Nc2nn3c(=O)c4ccccc4nc3s2)cc1`, the inhibition was -3.06%.

Turning to `COc1cc(OC)c(NC(=O)N2CCC(CN3CCCC3)CC2)cc1Cl`, the inhibition was 5.37%.

Take `COc1ccc(OC)c(NC(=O)c2ccc3c(Cl)c4c(nc3c2)CCCC4)c1`: the inhibition was found to be 3.95%.

For `CCCCN(C)C(=O)Cn1cnc2sc(C)c(S(=O)(=O)N3CCC(C)CC3)c2c1=O`, the inhibition is 5.23%.

For `Cc1ccc(CNc2ccc3cc(S(=O)(=O)N4CCCCC4)ccc3n2)cc1`, the inhibition was 8.44%.

Regarding `Cc1ccc(CNC(=O)c2ccc(CS(=O)(=O)Cc3ccc(C)cc3)o2)cc1`, the inhibition is -2.75%.

Consider `Cc1nn(-c2ccccc2)c2c1N(CC(=O)N1CCN(c3ccccc3F)CC1)C(=O)CS2`, for which the inhibition was -2.68%.

With `COc1ccccc1Nc1ncnc2scc(-c3ccc(F)cc3)c12`, the inhibition is -4.55%.

As to `CC1CN(S(=O)(=O)c2ccc(F)cc2)C(C)N1C(=O)N1CCOCC1` (stereo not given), the inhibition is active: 32.1%.

In the case of `COc1ccc(OC)c(NC(=O)C(C)N2c3cccc4cccc(c34)S2(=O)=O)c1` (stereo not given), the inhibition is active: 33.6%.

As to `COc1ccc(Nc2nn(-c3ccc(OC(F)(F)F)cc3)nc2C(C)=O)cc1`, the inhibition is -2.14%.

Take `COc1ccc(NC(=O)CC2Nc3ccccc3NC2=O)cc1` (stereo not given): the inhibition came to 2.24%.

In the case of `CC(=O)c1ccc(N2CCN(C(=O)c3cccc(Oc4ccccc4)c3)CC2)cc1`, the inhibition was active: 35.3%.

Regarding `Nc1nn(-c2ccccc2)nc1C(=O)OCc1c(F)cccc1Cl`, the inhibition is -19.9%.

For the compound `Cc1ccc(N(Cc2cccs2)C(=O)c2ccco2)cc1`, the inhibition turned out to be 15.2%.

`O=C(Nc1ccc2nc3n(c(=O)c2c1)CCCCC3)c1cccc(C(F)(F)F)c1`: the inhibition came out at 9.07%.

For the compound `O=C(CCC1N=C2c3ccccc3N=C(SCC(=O)Nc3ccc(F)cc3)N2C1=O)NCc1ccco1` (stereo not given), the inhibition came out at 0.449%.

For the compound `COc1cc(Nc2nc(SCC(=O)c3ccc(Cl)c(Cl)c3)nc3ccccc23)cc(OC)c1`, the inhibition is -15.1%.

Consider `CC(C)N(C(=O)Cn1cc(S(=O)(=O)Cc2ccc(Cl)cc2)c2ccccc21)C(C)C`, for which the inhibition stood at 18.1%.

As to `COc1ccc(-n2c(SCC(=O)NCc3ccccc3)nc3c([nH]c4ccccc43)c2=O)cc1`, the inhibition was -11.6%.

In the case of `COCCn1c(=O)[nH]c2cc(C(=O)NCc3ccccc3Cl)ccc2c1=O`, the inhibition amounted to 19.6%.

As for `CCOc1ccc(NC(=O)c2c(Nc3ccc(OC)cc3OC)sc(C(=O)c3ccc(Cl)cc3)c2N)cc1`, the inhibition is -1.9%.

For `CCOc1ccc(NC(=O)CSc2nc(-c3ccc(OC)cc3)nc3c2Cc2c(CO)cnc(C)c2O3)cc1`, the inhibition was -17.2%.

As for `CCOC(=O)c1cccc(NC(=O)c2cc3sccc3n2Cc2ccc(Cl)cc2)c1`, the inhibition was -10.2%.

As to `CCOc1ccc(CCNC(=O)CCc2cn(Cc3ccccc3F)c3ccccc23)cc1OCC`, the inhibition was 1.93%.

With `CCOc1ccc(/C=N/OCC(=O)NCc2ccc3c(c2)OCO3)cc1OC`, the inhibition was active: 31.9%.

For `CCN(c1ncnc2c1cnn2-c1ccc(C)cc1)C1CCCCC1`, the inhibition was -9.95%.

For `Cc1cc(Nc2ccc(C)c(Cl)c2)n2nc(Cc3ccccc3)nc2n1`, the inhibition is -18.4%.

Consider `COc1ccccc1CNS(=O)(=O)c1c(C)nc2scc(C)n2c1=O`, for which the inhibition was -3.78%.

For the compound `CC1OC(O[C@H]2CC[C@]3(C)C4C=C[C@]56OC[C@@]7(CC[C@@H](C)[C@H](C)C75)[C@H](O)C[C@@]6(C)[C@]4(C)CC[C@H]3C2(C)C)C(OC2OC(CO)C(O)C(O)C2OC2OCC(O)C(O)C2O)C(O)C1O` (stereo not given in full), the inhibition was active: 35.1%.

Take `CCC(CO)NC(=O)C(=O)Nc1c2c(nn1-c1ccc(F)cc1)CSC2` (stereo not given): the inhibition was 3.09%.

On to `CC(C)(C)c1ccc(S(=O)(=O)NCc2ccc3c(c2)CCN3C(=O)c2ccccc2)cc1`, for which the inhibition is -12.1%.
